Experimental data: the BET-seq Pho4 binding data (Le et al. 2018)
The list shows a part of the results. Values were computed here from the reads of four pooled replicates and scatter widely.

molecular target: T1, Pho4 (S. cerevisiae) (UniProt P07270); assay: relative binding free energy (BET-seq); higher = weaker binding; conditions: reference: library average
T1 sequence: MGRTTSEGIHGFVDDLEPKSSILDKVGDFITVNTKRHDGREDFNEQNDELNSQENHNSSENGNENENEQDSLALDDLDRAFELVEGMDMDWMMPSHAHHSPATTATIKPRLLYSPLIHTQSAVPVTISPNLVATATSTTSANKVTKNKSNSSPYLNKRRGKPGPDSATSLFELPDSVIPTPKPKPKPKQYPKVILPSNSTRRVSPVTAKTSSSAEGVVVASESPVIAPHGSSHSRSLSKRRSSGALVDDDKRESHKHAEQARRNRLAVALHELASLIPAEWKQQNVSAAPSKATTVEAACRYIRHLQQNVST

Sequence	relative binding free energy [kcal/mol]
TTCATCACGTGTGATG	0.13
GGTTGCACGTGGTATA	-0.05
TTAGCCACGTGGGGGC	-0.11
TAAGTCACGTGGGATC	0.03
GTTCGCACGTGTTGGA	-0.06
ATGGTCACGTGTTGCC	0.17
GGTAACACGTGGGTGA	-0.13
TGTAGCACGTGTAGGG	0
ATCTTCACGTGTTTGA	0.16
CTAAACACGTGTTTGT	-0.04
TCTCTCACGTGAGGTG	0.28
TGAGGCACGTGTGAGA	0.01
CGGTACACGTGGAGGG	0.05
CGGGCCACGTGGTGTC	-0.19
GTTCACACGTGGTGGC	0.05
TGAGGCACGTGTAGGG	-0.06
GAATACACGTGAGGGG	0.26
AGTGTCACGTGGGCTC	0.09
TGTTACACGTGTATAT	0.15
ACGAACACGTGGTGGT	0.03
AAGGGCACGTGAAGTT	0.24
TTTGTCACGTGCGGGT	0.12
GTGTTCACGTGGTTTC	0.22

Sequence	relative binding free energy [kcal/mol]
AATAGCACGTGAGGTT	0.02
GGCGTCACGTGTGCGG	0.13
GTATTCACGTGAGAAG	0.34
TGGAACACGTGGCAGG	-0.02
GTGTGCACGTGTACGG	0.07
AATTGCACGTGTAAGG	0.11
GTAAGCACGTGGGCGT	-0.09
GTAAGCACGTGTTGGT	-0.01
ACGGGCACGTGGCCGG	-0.19
TGAGGCACGTGCGGCG	-0.2
CGTGTCACGTGGTGCG	-0.08
TGTCGCACGTGCATGG	-0.17
ATATACACGTGTGAAT	0.12
TGCTTCACGTGAGTAG	0.35
TAATGCACGTGGGTTA	-0.28
GGACGCACGTGGGTTA	-0.11
GGAGGCACGTGAGTAG	0.06
CATTCCACGTGGTGTG	0.08
TAAGCCACGTGGTGTT	-0.18
TTTCACACGTGAGGTT	0.21
GGGACCACGTGTGGGC	-0.01
GCATGCACGTGGGTTG	-0.08
GTTGGCACGTGGTCGC	-0.27

Sequence	relative binding free energy [kcal/mol]
ACTTGCACGTGGGGTT	-0.08
TTTTTCACGTGGTCGT	0.22
GCGGGCACGTGTCTTG	-0.07
GTTTACACGTGGATTG	0
GTTCACACGTGTTTTA	0.03
TTGATCACGTGCCGGG	0.02
GATGTCACGTGATGTG	0.35
TCGTTCACGTGTATGT	0.11
GTGCGCACGTGGATTT	-0.04
ATCATCACGTGGGTAT	0.02
CCGTGCACGTGGCGTG	0
CGTAACACGTGGTTGT	-0.1
TATCTCACGTGGGATG	0.13
GGATACACGTGTTAAT	0.32
GGTTCCACGTGGATTA	0.22
GGGCTCACGTGGGCTT	0.2
ATGGTCACGTGTTGCG	0.02
ATTTACACGTGTTATA	0.08
AAAATCACGTGTCGTT	0.18
CTTATCACGTGGTATG	0.05
TGACACACGTGATGGT	0.13
GTTTGCACGTGGAAGA	0.09
CTCTTCACGTGGGGGA	0.12

Sequence	relative binding free energy [kcal/mol]
TGATGCACGTGAAGCG	0.2
GTAAGCACGTGGTTAT	-0.19
TGTTGCACGTGTACAG	0.05
GGTGACACGTGTGGAT	0.22
TTTATCACGTGACATG	0.23
TAGAACACGTGTTTTG	-0.09
GTTATCACGTGCGTAG	0.12
CTTTACACGTGATTTT	0.16
CGTGTCACGTGGTAGG	0.08
CTTTTCACGTGAGGGT	0.33
GAATTCACGTGGCTGG	0.22
TGTACCACGTGTGGGC	0.01
GGTGCCACGTGATAGG	0.04
TGAGGCACGTGGAGTT	-0.08
GGTCTCACGTGTTTAA	0.38
ATGTTCACGTGCGGCG	0.15
ATGGTCACGTGGCGCG	-0.04
TTTAACACGTGCGATG	0.04
AAATGCACGTGATTGA	0.08
ATCGTCACGTGTTGTT	0.05
AGGTGCACGTGGCGTA	-0.24
GTGCACACGTGGGCGT	-0.11
GTGGGCACGTGCTGAG	-0.09

Sequence	relative binding free energy [kcal/mol]
ATTTTCACGTGAGTTC	0.33
TAGCGCACGTGTGGGA	-0.04
TCAGGCACGTGTGGTT	0.07
AGAGACACGTGGCGTG	-0.13
AGGGCCACGTGGGATT	-0.11
GTATACACGTGGGAAT	0.03
TTGACCACGTGGGGAT	-0.2
AGTTGCACGTGTGGGT	0
CTTAGCACGTGTATGG	-0.11
ATGTGCACGTGTATTG	-0.08
GGACTCACGTGGGGGT	-0.02
TGCGTCACGTGATGTA	0.21
ACGTTCACGTGGGGGT	0.12
TTGTACACGTGATGCT	0.17
GGGTGCACGTGTCATG	-0.07
TGTTGCACGTGGTTAT	-0.05
AAGTGCACGTGGTTGT	0
GTTTGCACGTGGCGTC	-0.06
ATGTACACGTGAGGTT	0.22
TTTGTCACGTGAAGCT	0.25
CGGACCACGTGAGGGG	0.15
AGTTGCACGTGGCGGG	-0.02
AAATGCACGTGTTGCA	0.16
